# Test results published in the supplement of paper PMC8728848.
# This is one part of the list.
# B1: Epa1-NP (Candida glabrata), Q6VBJ0 (protein)
# chain: MILNPALFLNKCVCIYTTLILLLLTNGGYATSSNDISLASKDPTTFPLGCSPDITTPKKGLSMELYSYDFRKKGSYPCWDAAYLDPNYPRTGYKSHRLLAKVDGVTGNINFYYHATKGCTPQLGHLPASYNYPKPLTMTNFTMLLYGYFRPKVTGFHTFTISADDLLFVNFGAGNAFDCCRRDSSADHFGNYQAYAIWGSKTAKDELTVHLDAGVYYPIRLFYNNREYDGALSFTFKTESNENTVSDFSEYFFSLDDTEEGCPGLISYDSSCASVKTSKIIGIDYHTETPNENLVPITKTIYHLGIPCTGTTTTPLCGSGFYDPLANKCVTINTSSTSSVTKTTSHTTSKEVSFHSSISSQKTLIPKSIPSPYGPIKSQSIPTEMETSSEISSSEYAFSDVISTPSHSPYTKKHSSLNSSSYTSTVIHSLTSYSISQGIFSTSLSEQNITSKSSTDKFSTATSMSNNITQSSIIISQFSTNNENYTTTSMHTSSDKISTETLNNSISTTTSILFSNSSTILKNNTTIISSDKDTHYHPVNPTIVCSTNKTEIICASITQPSISNSNNHWSSSVLKFNSTTVRSTLPSSAGSNETSINVPFSSSTESNTSTSSTSTSNSKMVRSTLPSSAGSNETSISVPFSSSTESNTSTSSTSTSNSKMVRSTLPSSAGSNETSINVPFSSSTESNTSTSSTSTSNSKTVRSTPFSSAGIIMTSLSQRNNKSASSYASSNSKCYNTADSCRKVHSTPSYLLTSSYTSEGVDYDCSLVSTKLKINDTNCVNNKHTTKSCLKTSVTTTIPTLEIKTARKSSSNTIGLHSYPTSSPNKSISSAPIIGYISSFKTIKTASPSYQTSDLTTITTITSLNNPGSTAVENTHESNDKSRKTSSNDISSKHSVIKETKDAVESSNKSHQTNTLKCSSIIIASSSHNSYESLGGTTLTLTLSKVYSPQNNDTLPFLEISEVNPSRTVLPESSKMMQYLTSTEERNKTARNTIATNIVSISTFHFEGEGNAIRMGYTQLLLMLIGIIVMNIGT
# What was measured:
# Assay in all cases: glycan array binding signal (z-score within array); higher = stronger binding
# Settings in all cases: glycan notation: IUPAC condensed, linker removed
# [1] = biological target: Neu5Ac(a2-3)Gal6S(b1-4)[Fuc(a1-3)]GlcNAc
# Outline: (§1)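 The Consortium for Functional Glycomics database supplied 3228 glycan arrays, of which those lacking an available protein sequence were dropped. The binding signal, a within-array Z-score, was averaged across arrays of the same protein sequence and across linkers. Negative scores can be read as non-binding.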
# [2] = biological target: Neu5Ac(a2-3)GalNAc
# Outline: as §1
# [3] = biological target: Neu5Ac(a2-3)GalNAc(b1-4)GlcNAc
# Outline: as §1
# [4] = biological target: Neu5Ac(a2-3)[GalNAc(b1-4)]Gal(b1-4)Glc
# Outline: as §1
# [5] = biological target: Neu5Ac(a2-3)[GalNAc(b1-4)]Gal(b1-4)GlcNAc
# Outline: as §1
# [6] = biological target: Neu5Ac(a2-3)[GalNAc(b1-4)]Gal(b1-4)GlcNAc(b1-3)GalNAc
# Outline: as §1
# [7] = biological target: Neu5Ac(a2-3)[Neu5Ac(a2-6)]GalNAc
# Outline: as §1
# [8] = biological target: Neu5Ac(a2-6)Gal
# Outline: as §1
# [9] = biological target: Neu5Ac(a2-6)Gal(b1-3)GlcNAc(b1-3)[Gal(b1-4)GlcNAc(b1-6)]Gal(b1-4)Glc
# Outline: as §1
# [10] = biological target: Neu5Ac(a2-6)Gal(b1-4)Glc
# Outline: as §1
# [11] = biological target: Neu5Ac(a2-6)Gal(b1-4)GlcNAc
# Outline: as §1
# [12] = biological target: Neu5Ac(a2-6)Gal(b1-4)GlcNAc(b1-2)Man
# Outline: as §1
# [13] = biological target: Neu5Ac(a2-6)Gal(b1-4)GlcNAc(b1-2)Man(a1-3)Man(b1-4)GlcNAc(b1-4)GlcNAc
# Outline: as §1
# [14] = biological target: Neu5Ac(a2-6)Gal(b1-4)GlcNAc(b1-2)Man(a1-3)[Gal(b1-4)GlcNAc(b1-2)Man(a1-6)]Man(b1-4)GlcNAc(b1-4)GlcNAc
# Outline: as §1
# [15] = biological target: Neu5Ac(a2-6)Gal(b1-4)GlcNAc(b1-2)Man(a1-3)[GlcNAc(b1-2)Man(a1-6)]Man(b1-4)GlcNAc(b1-4)GlcNAc
# Outline: as §1
# [16] = biological target: Neu5Ac(a2-6)Gal(b1-4)GlcNAc(b1-2)Man(a1-3)[GlcNAc(b1-2)Man(b1-4)GlcNAc(b1-2)Man(a1-6)]Man(b1-4)GlcNAc(b1-4)GlcNAc
# Outline: as §1
# [17] = biological target: Neu5Ac(a2-6)Gal(b1-4)GlcNAc(b1-2)Man(a1-3)[GlcNAc(b1-4)][Neu5Ac(a2-6)Gal(b1-4)GlcNAc(b1-2)Man(a1-6)]Man(b1-4)GlcNAc(b1-4)GlcNAc
# Outline: as §1
# [18] = biological target: Neu5Ac(a2-6)Gal(b1-4)GlcNAc(b1-2)Man(a1-3)[Man(a1-6)]Man(b1-4)GlcNAc(b1-4)GlcNAc
# Outline: as §1
# [19] = biological target: Neu5Ac(a2-6)Gal(b1-4)GlcNAc(b1-2)Man(a1-3)[Neu5Ac(a2-3)Gal(b1-4)GlcNAc(b1-2)Man(a1-6)]Man(b1-4)GlcNAc(b1-4)GlcNAc
# Outline: as §1
# [20] = biological target: Neu5Ac(a2-6)Gal(b1-4)GlcNAc(b1-2)Man(a1-3)[Neu5Ac(a2-6)Gal(b1-4)GlcNAc(b1-2)Man(a1-6)]Man(b1-4)GlcNAc(b1-4)GlcNAc
# Outline: as §1
# [21] = biological target: Neu5Ac(a2-6)Gal(b1-4)GlcNAc(b1-2)Man(a1-3)[Neu5Ac(a2-6)Gal(b1-4)GlcNAc(b1-2)Man(a1-6)]Man(b1-4)GlcNAc(b1-4)[Fuc(a1-6)]GlcNAc
# Outline: as §1
# [22] = biological target: Neu5Ac(a2-6)Gal(b1-4)GlcNAc(b1-2)Man(a1-6)Man(b1-4)GlcNAc(b1-4)GlcNAc
# Outline: as §1
# [23] = biological target: Neu5Ac(a2-6)Gal(b1-4)GlcNAc(b1-2)Man(a1-6)[Gal(b1-4)GlcNAc(b1-2)Man(a1-3)]Man(b1-4)GlcNAc(b1-4)GlcNAc
# Outline: as §1
# [24] = biological target: Neu5Ac(a2-6)Gal(b1-4)GlcNAc(b1-2)Man(a1-6)[GlcNAc(b1-2)Man(a1-3)]Man(b1-4)GlcNAc(b1-4)GlcNAc
# Outline: as §1
# [25] = biological target: Neu5Ac(a2-6)Gal(b1-4)GlcNAc(b1-2)Man(a1-6)[Man(a1-3)]Man(b1-4)GlcNAc(b1-4)GlcNAc
# Outline: as §1
# [26] = biological target: Neu5Ac(a2-6)Gal(b1-4)GlcNAc(b1-2)[Neu5Ac(a2-6)Gal(b1-4)GlcNAc(b1-4)]Man(a1-3)[GlcNAc(b1-4)][Neu5Ac(a2-6)Gal(b1-4)GlcNAc(b1-2)[Neu5Ac(a2-6)Gal(b1-4)GlcNAc(b1-6)]Man(a1-6)]Man(b1-4)GlcNAc(b1-4)GlcNAc
# Outline: as §1
# [27] = biological target: Neu5Ac(a2-6)Gal(b1-4)GlcNAc(b1-2)[Neu5Ac(a2-6)Gal(b1-4)GlcNAc(b1-4)]Man(a1-3)[GlcNAc(b1-4)][Neu5Ac(a2-6)Gal(b1-4)GlcNAc(b1-4)Man(a1-6)]Man(b1-4)GlcNAc(b1-4)GlcNAc
# Outline: as §1
# [28] = biological target: Neu5Ac(a2-6)Gal(b1-4)GlcNAc(b1-2)[Neu5Ac(a2-6)Gal(b1-4)GlcNAc(b1-6)]Man(a1-6)[Neu5Ac(a2-6)Gal(b1-4)GlcNAc(b1-2)Man(a1-3)][GlcNAc(b1-4)]Man(b1-4)GlcNAc(b1-4)GlcNAc
# Outline: as §1
# [29] = biological target: Neu5Ac(a2-6)Gal(b1-4)GlcNAc(b1-3)Gal(b1-3)GlcNAc
# Outline: as §1
# [30] = biological target: Neu5Ac(a2-6)Gal(b1-4)GlcNAc(b1-3)Gal(b1-4)GlcNAc
# Outline: as §1
binder,measurement,setting,value
B1,glycan array binding signal (z-score),[1],-0.312
same,glycan array binding signal (z-score),[2],-0.329
same,glycan array binding signal (z-score),[3],-0.338
same,glycan array binding signal (z-score),[4],-0.329
same,glycan array binding signal (z-score),[5],-0.334
same,glycan array binding signal (z-score),[6],-0.305
same,glycan array binding signal (z-score),[7],-0.344
same,glycan array binding signal (z-score),[8],-0.276
same,glycan array binding signal (z-score),[9],0.296
same,glycan array binding signal (z-score),[10],-0.276
same,glycan array binding signal (z-score),[11],-0.319
same,glycan array binding signal (z-score),[12],-0.288
same,glycan array binding signal (z-score),[13],-0.272
same,glycan array binding signal (z-score),[14],-0.289
same,glycan array binding signal (z-score),[15],-0.257
same,glycan array binding signal (z-score),[16],-0.296
same,glycan array binding signal (z-score),[17],-0.292
same,glycan array binding signal (z-score),[18],-0.28
same,glycan array binding signal (z-score),[19],-0.287
same,glycan array binding signal (z-score),[20],-0.318
same,glycan array binding signal (z-score),[21],-0.283
same,glycan array binding signal (z-score),[22],-0.267
same,glycan array binding signal (z-score),[23],-0.033
same,glycan array binding signal (z-score),[24],-0.261
same,glycan array binding signal (z-score),[25],-0.264
same,glycan array binding signal (z-score),[26],-0.288
same,glycan array binding signal (z-score),[27],-0.286
same,glycan array binding signal (z-score),[28],-0.289
same,glycan array binding signal (z-score),[29],-0.282
same,glycan array binding signal (z-score),[30],-0.339
